The RNAGym collection of RNA variant scans (doi:10.1093/nar/gkz1192)
Read counts are not given, so values of variants with three or more changes are uncertain.

B1: CPEB3 Ribozyme (parent)
chain: UAACAGGGGGCCACAGCAGAAGCGUUCACGUCGCAGCCCCUGUCAGAUUCUGGUGAAUCUGCGAAUUCUGCUGUAUAUCUC

Variants of: B1
Test: self-cleavage, relative activity (ratio to wild type); higher = more cleavage; in vitro, sequencing
Procedure, shortened: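 After error-prone PCR and barcoding, CPEB3 ribozyme mutant libraries were transcribed with T7 RNA polymerase at 37°C for 5 hours, then given 15 min with DNase I before an EDTA stop, and they cleaved during both steps. Reverse transcription with template switching preceded Illumina sequencing. Relative activity divides a variant's cleaved/total read fraction by the unmutated ribozyme's. At least 5 reads were required per variant, and three batches were averaged.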

Row | Variant | self-cleavage
1 | CAACAGUGGGCCACAGCAGAAGCGUUCACGUCGCAGCCCCUGUCAGAUUCUGGUGAAUCUGCGAAUUCCGCUGUAUAUCUC [U1C G7U U69C] | 0.26
2 | CAACAGGAGGCCGCAGCAGAAGCGUUCACGUCGCAGCCCCUGUCAGAUUCCGGUGAAUCUGCGCAUUCUGCUGUAUAUCUC [U1C G8A A13G U51C A64C] | 0.05
3 | CAACAGGAGGCCACAGCAGAAGCGUUCACGUCGCGGCCCCUGUCAGAUUCUGGUGAAUCUGCGAAUACUGCUGUAUAUCUC [U1C G8A A35G U67A] | 0.29
4 | CAACAGGAGGCCACAGCAGAAGCGUUCACGUCGCUGCCCCUGUCAGAUUCUGCUGAAUCUGCUAAUUCUGCUGUAUAUCUC [U1C G8A A35U G53C G63U] | 0.13
5 | CAACAGGAGGCCACAGCAGAAGCGUUCACGUCGCAGCCCCUGUCGGAUUCAGGUGAGUCUGCGAAUUCUGCUGUAUAUCUC [U1C G8A A45G U51A A57G] | 0.32
6 | CAACAGGAGGCCACAGCAGAAGCGAGCACGUCGCAGCCCCUGUCAGAUUCUGGUGAAUCUGCGUAUUCUGCUGUAUAUCUC [U1C G8A U25A U26G A64U] | 0.04
7 | CAACAGGUGGCCACAGCAGAAGCGUUCACGUCGCAGCCCCUGUCAGAUACUGGUGAAUCUGCGAAUUCUGCAGUAUAUCUC [U1C G8U U49A U72A] | 0.06
8 | CAACAGGGAGCCUCAGCAGAAGCGUUCACGGCGCAGCCCCCGUCAGAUUCUGGUGAAUCUGCGGAUUCUGCUGUAUAUCUC [U1C G9A A13U U31G U41C A64G] | 0.05
9 | CAACAGGGAGCCACAGCAGAAGCGUUCGCGUCGCAGCCCCGGUCAGAUUCUGGUGAAUCUGCGAAUUCUGCUGUAUAUCUC [U1C G9A A28G U41G] | 0.06
10 | CAACAGGGAGCCACAGCAGAAGCGUUCACGUCGCAGCCCCUGUUAGAUUCUAGUGAAUCCGCGAAUUCUGCUGUAUAUCUC [U1C G9A C44U G52A U60C] | 0.29
11 | CAACAGGGAGCCACAGCAGAAGCGUACACGUCGCAGCCCCUGCCAGAUUCUGGUGAAUCUGCUAAUUCUGCAGUAUAUCUC [U1C G9A U26A U43C G63U U72A] | 0.04
12 | CAACAGGGAGCCACAGCAGAAGCGUUCACGCCGCAGCCCUUGUCGGAUUCUGGUGAAUCUGCGAAUUCUGCUAUAUAUCUC [U1C G9A U31C C40U A45G G73A] | 0.25
13 | CAACAGGGAGCCACAGCAGAAGCGUUCACGUCGCAGCCCCUGUCAGAUUCAGGUGAAACUGCGAGUUCUGCCGUAUAUCUC [U1C G9A U51A U58A A65G U72C] | 0.15
14 | CAACAGGGCGCCACAGCAGAGGCGUUCACGUCGCAGCCCCUGUCAGAUUCUGGUGAAUCUGCGAACUCUACUGUAUAUCUC [U1C G9C A21G U66C G70A] | 0.02
15 | CAACAGGGUGACACAGCAGAAGCGUUCACGUCGCAGCCCCUGUCAGAUUCUGGUGAAUCUGCGAGCUCUGCUGUAUAUCUC [U1C G9U C11A A65G U66C] | 0.05
16 | CAACAGGGUGCCACAGCAGAAGCAUUCACGUCGCAGCCCCUGCCAGAUUCUGGUGAAUCUGCGAAUUCUGCCGUAUAUCUC [U1C G9U G24A U43C U72C] | 0
17 | CAACAGGGUGCCACAGCAGAAGCGUUCACGUCCCAGCCCCUGUCAGAUUCUGGUGAAUCUGCGAAUUCUGCUGUAUAUCUC [U1C G9U G33C] | 0.05

Row | Variant | self-cleavage
18 | CAACAGGGUGCCACAGCAGAAGCGUUCACGCCGCAGCCCCUGUCAGAUUCUGGUGAAUCCGCGAAUUCUGCUGUAUACCUC [U1C G9U U31C U60C U78C] | 0.04
19 | CAACAGGGGACCGCAGCAGAAGCGUUCACGUCGCAGCCCCUGUCAGAUUCUGGUGAAUCUGCGAAUUCUGCUGUAUAUCUC [U1C G10A A13G] | 0.06
20 | CAACAGGGGACCGCAGCAGGAGCGCUCACGUCGCAGCCCCUGUCGGAUUCUGGUGAAUCUGCGGAUUCUGCUGUAUAUCUC [U1C G10A A13G A20G U25C A45G A64G] | 0.03
21 | CAACAGGGGACCACAGCAGAGGCGUACACGUCGCGGCCCCCGUCAGAUUCUGGUGAAUCUGCGAAUUCUGCUGCAUAUCUC [U1C G10A A21G U26A A35G U41C U74C] | 0.57
22 | CAACAGGGGACCACAGCAGAAGCGUUCACGUCGCAGCCCAUGUCCGACUCUGGUGAAUCUGCGGAUUCUGCUGUAUAUCUC [U1C G10A C40A A45C U48C A64G] | 0.06
23 | CAACAGGGGACCACAGCAGAAGCGUUCACAUCGCAGCCCCUGUCAGAUUCUGGUGAAUCUGCGAAUUCUGCUGUAUAACCC [U1C G10A G30A U78A U80C] | 0.04
24 | CAACAGGGGACCACAGCAGAAGCGUUCACGUCGCAGCCCCAGUCAGAUUCUGGUGAAUCUGCGAAUUCUGCUGUAUAUCUC [U1C G10A U41A] | 0.21
25 | CAACAGGGGACCACAGCAGAAGCGUUCACGUCGCAGCCCCUGUCAGAUUCUGGUGAAUCCGCGAAUUCUGCUGUAUAUCUC [U1C G10A U60C] | 0.19
26 | CAACAGGGGACCACAGCAGAAGCGUUCACGUCGCAGCCCCUGUCAGAUUCUGGUGAAUCUGCGAAUUCUGCUGUAUAUCCC [U1C G10A U80C] | 0.41
27 | CAACAGGGGCCCACAACAGAAGCGUUCACGUCGCAGCCCCUGCCAGAUUCUGGUGAAUCUGCGAAUUCUGCUGUAUAUCUC [U1C G10C G16A U43C] | 0.1
28 | CAACAGGGGCCCACAGCAGAAGCGUACUCGUCGCAGCCCCUGUCAGAUUCUGGUGAAUCUGCGAAUUCUGCUGUAUAUCUC [U1C G10C U26A A28U] | 0.06
29 | CAACAGGGGCCCACAGCAGAAGCGUUCACGUCGCAGCCCCAGCCAGAUUCUGGCGAAUCUGCGAAUUCUGCUGUAUAUCUC [U1C G10C U41A U43C U54C] | 0.07
30 | CAACAGGGGUCCUCAGCAGAAGCGCUCACGUCGCAGCCCCUGUCAGAUUCUGGUGAAUCUGCGAAUUCUGCUGUAUAUCUC [U1C G10U A13U U25C] | 0.06
31 | CAACAGGGGUCCACAGCAGGAGCGUUCACGUCGCAGCCCCUGUCAGAUUUUGGUGAAUCUGCGAACUCUGCUGUAUAUCUC [U1C G10U A20G C50U U66C] | 0.05
32 | CAACAGGGGGCCACAACAGAAGCGCUCACGUCGCAGCCCCAGUCAGAUUCUGGUGAAUCUGCGAAUUCUGCUGUAUAUCUC [U1C G16A U25C U41A] | 0.32
33 | CAACAGGGGGCCACAUCAGAAGCGUUCACGUCGCAGCCCCCGUCAGAUUCUGGUGAAUCUGCGAAUUCUGCUGUAUACCUC [U1C G16U U41C U78C] | 0.41
34 | CAACAGGGGGCCACAUCAGAAGCGUUCACGUCGCAGCCCCUGUCAGAUUCUGGCGAAUCUGCGAAUCCUGCUGUAUAUCUC [U1C G16U U54C U67C] | 0.13
